The source of these data is the RNAGym collection of RNA variant scans (doi:10.7554/elife.90254).

The source gives no read counts; variants with many changes may rest on few reads.

The chains are these.
B1: LINE1-mini (parent)
chain: GGCAGAGCUCAACACAGCGUGGCAAAGUGGCUGUGGCUAGACUGCC

In this data set the parent is B1. In words: self-cleavage, relative activity (ratio to wild type); higher = more cleavage; in vitro, sequencing; the parent is a self-cleaving ribozyme.
A26U G27C A39C C42A: the self-cleavage was determined as 0.08.
Next, U28A G36U G40C C42A C45A: 0.01.
Take U28C G36A C37G A41C: the self-cleavage came out at 0.01.
The same measure for U28C G35U G44U C45A: 0.04; for U28A A41U U43C: 0.08.
The same measure for U28A G30C G36A C37A: 0.1.
The same measure for U28G G29C A39C: 0.02; for G27C G35U G36C: 0.07; for U28G G33C G35C: 0.03.
As to G27C G30U U32G, the self-cleavage stood at 0.05.
G27U G33A A41C: the self-cleavage stood at 0.04.
For G27U G35U G40C, the self-cleavage stood at 0.2.
Turning to U28C G30C G33A C42A C46G, the self-cleavage came to 0.
Next, G27U G29A A39G: 0.06; A26G U38G G44U: 0.01; U28C G30A U38C: 0.43.
Next, G27A G29A A41C: 0.08; G27C C31A C37U: 0.12.
Consider U28A G30A U43C, for which the self-cleavage came to 0.74.
Next, U28G G30A U32C C45A: 0.04.
The same measure for G27U G44A C46U: 0.07; for A26U G27U C46A: 0.64.
The same measure for U28C G30U C31A U43A C46U: 0.02.
As for A26U U28G A41C, the self-cleavage is 0.
Take G27A G29A U34G G36U: the self-cleavage came to 0.11.
Next, G27U G36U G44A: 0.03; G27U G33C C42A: 0.06; A26U G36C C45U: 0.13.
The same measure for U28C C31U U34G C46U: 0.07; for G27C U34C C42A: 0.09.
The same measure for U28C G30C C37A: 0.01.
For G27U G33C G36A A41C, the self-cleavage was 0.
Next, U28G C31A C42G: 0.01; U28A U38A C42U C45G: 0.01; A26G U28G C37A: 0.02.
The same measure for G27U G40A A41G: 0.17.
Turning to U28A C42A C45U, the self-cleavage was 0.01.
Turning to U28A C31A U38C, the self-cleavage was determined as 0.05.
Next, G27U U28G G36U A41U: 0.05.
Next, G27U G40C A41U: 0.2; G27U G29A C31U: 1.34; U28G G44C C45A: 0.04.
The same measure for G27U C31A A41U: 0.1.
Take U28C G30U G40C: the self-cleavage stood at 0.03.
The same measure for A26U C37U U43C: 0.06; for U28A G33C G44C: 0.05.
Next, A26U A39G C42A G44U: 0; G27U U32C G44A: 0.05; G27U C31U U32A C46G: 0.08.
The same measure for G27C G30A C46A: 0.72.
Take U28G G33C G35A G44U: the self-cleavage came out at 0.01.
Next, G27U C42G G44U: 0.02.
Next, U28C C31G U32A: 0.03; U28A G35U C45A: 0; A26U G36C U38C C42G: 0.
Next, G27A U38G C45A: 0.01; U28G G36U G44A: 0.12; U28A C31U A41G: 0.19.
For the variant G27C G29A U34C, the self-cleavage is 0.1.
With U28A G35U A39G, the self-cleavage was 0.09.
Next, G27A G29C C45A: 0.27; U28G G30U U38G: 0.04; G27A G36C A41C: 0.07.
Turning to A26U G30C G36U, the self-cleavage worked out at 0.07.
The same measure for A26U G27A C31G C45A: 0.07; for A26U C42G U43C: 0.04.
The same measure for U28A C37A G40C C42A C45U: 0.15.
Next, G27U U28G G29C: 0.2; A26U U32A G35U: 0.02; A26U G40A A41G: 0.18.
U28G G29U G33C C37U: the self-cleavage turned out to be 0.05.
The same measure for G27U G30A G40A C42G G44U: 0.06.
The same measure for G27U G40A C46G: 0.26; for G27C C42U C45U: 0.11.
Next, U28A C37G A41G: 0.02.
Turning to G27C U32A C37G, the self-cleavage stood at 0.06.
On to A26U G27U G30U A41U, for which the self-cleavage came out at 0.1.
The same measure for G27C G29A U43A: 0.06; for A26U G33U G36A C42A: 0.05.
Next, U28A G30A A41C: 0.08.
Next, G27C U28C G30U C42A G44C: 0.04; U28A U32C G36A A41U: 0.09; G27A G33C C45G: 0.05.
As for G27A G30A G35U G40U G44C, the self-cleavage was 0.21.
As for U28G G33A U38G C42G, the self-cleavage was found to be 0.02.
The same measure for A26U G27U G35U C45U: 0.01.
The same measure for U28A G33U C42G: 0.01; for A26U C37A A41C: 0.03; for U28G G29U C42U: 0.29.
The same measure for A26U G30U U32G: 0.1; for U28G C31A C37A C45U: 0.03.
As for U28A U34C C46G, the self-cleavage was determined as 0.11.
A26U C37U C45U: the self-cleavage was 0.01.
Next, G27C G40A A41G G44U: 0.04; G27C G29A G33U U34A G40A: 0.05; A26G U32A U34A C46G: 0.08.
Next, U28G U34G G35A: 0.19.
The same measure for G27A G40U C42A: 0.1; for U28A A39G A41C: 0.
A26G U28G C42U: the self-cleavage came out at 0.06.
Next, G27A A39U A41C C46U: 0.06; A26U A39C U43C: 0.06; A26U G27U G44U: 0.17.
U28A A41U G44A: the self-cleavage amounted to 0.42.
The same measure for G27A G40U A41C: 0.13; for G27U G35U C46G: 0.08; for U28G C31A G35A U43A: 0.03.
The same measure for G27A G40A G44U: 0.08; for G27U U34G G35U G36U: 0.01; for G27C A39U C46G: 0.19.
The same measure for U28A C37G C45A: 0.21.
For the variant U28C G33A G36A A41U, the self-cleavage was found to be 0.24.
As for G27A G36A U38A G40U, the self-cleavage is 0.06.
The same measure for A26U U38A C45A: 0.04; for G27A G30A U38A A39G: 0.07; for G27C G30A U43C: 0.08.
Next, A26U G40A C45U: 0.04; G27U G33A G36C C42A: 0.04.
Next, U28A G29U G35A: 0.29; G27U G35A A41C C45A: 0.07.
Consider G27A U28A C42A U43C, for which the self-cleavage stood at 0.09.
As to G27C G44C C46A, the self-cleavage turned out to be 0.09.
Next, G27A U34A G35C: 0.
Next, G27A A39G G44U: 0.01; G27A G30C C37G: 0.06; G27C U32A G33A G40C: 0.1.
The same measure for U28C U32G G36A A41U: 0.04; for A26U G33U A41G: 0.02; for G27A G29U G30C G35U: 0.08.
As for G27A G35C G40A, the self-cleavage came out at 0.19.
Next, A26U G29U U34G G35U U43C: 0.07; U28G G33U G35A U43C: 0.02.
Next, U28G C31U U38A A39U C45U: 0.3.
Next, U28G U34A C37A C45A: 0.
On to U28A C31U U32A G36U G40C C46U, for which the self-cleavage came to 0.03.
Next, G27A G29U U38A: 0.16; G27U C37A C42U: 0.19.
The same measure for A26U G27C G29U: 0.22; for A26U G29U C31G: 0.04; for A26U U32C G40A G44U: 0.03.
Take G27C C31G G36C C42U: the self-cleavage worked out at 0.03.
The same measure for G27U C31G U43A: 0.19; for G27A U28C C37U: 0.04.
Next, G27A G33C C46G: 0.08.
As to A26U C37A C46U, the self-cleavage is 0.09.
Next, U28C U43C G44A: 0.01; U28A U38G C42U G44U: 0.01.
Next, A26U U32C C46A: 0.07.
The same measure for U28A A41C C46A: 0.03; for G27U G29U C45A: 1.19.
Take G27U U32C C42G: the self-cleavage worked out at 0.
Next, A26U A39C A41G G44A: 0.05.
On to U28C C31G A41U, for which the self-cleavage stood at 0.09.
The same measure for U28G G30C U32C C37U G40U: 0.01; for G27C A41C G44U: 0.05.
Next, G27A G33A G35A: 0.08.
Take G27U C37A C42A U43G: the self-cleavage was 0.01.
Next, G27C G30U G44U: 0.14.
Next, G27A A41U C42U: 0.04; U28A U32A G36A: 0.02.
Next, G27C G29C G30U: 1.44.
As for G27A U32A C42A, the self-cleavage came to 0.12.
The same measure for U28G G29U A39G: 0.04.
The same measure for U28G U34C G40C C42U C45A C46A: 0.02.
Next, U28A G40A C42G: 0.05; G27U U43A G44A: 0.07; U28A G33A G36U: 0.
